This passage reports kon, Kd and koff results from patent publication US20230265217A1 (TWIST BIOSCIENCE, published 2023).

Common to all, as to assay: Carterra SPR
Experiment [1] addresses T1, SARS-CoV-2 S protein trimer (Alpha B.1.1.7 UK variant) [SPN-C52H6] (SARS-CoV-2).
T1 construct: also called B.1.1.7 Alpha UK variant

Experiment [2] concerns the target SARS-CoV-2 S protein trimer (P.1 Gamma Brazil variant) [SPN-C52Hg] (SARS-CoV-2).
In experiment [3] the target is T2, SARS-CoV-2 S protein trimer (Kappa B.1.617.1 India variant) [SPN-C52Hr] (SARS-CoV-2).
T2 construct: also called B.1.617.1 Kappa India variant

Experiment [4] addresses T3, SARS-CoV-2 S protein trimer (Delta B.1.617.2 India variant) [SPN-C52He] (SARS-CoV-2).
T3 construct: also called B.1.617.2 Delta India variant [SPN-C52he]

In experiment [5] the target is T4, SARS-CoV-2 S protein trimer (Beta B.1.351 SA variant) [SPN-C52Hk] (SARS-CoV-2).
T4 construct: also called B.1.351 Beta SA variant

B1: Bispecific Antibody 2 (bispecific antibody)
chain: EVQLVESGGGLVQPGGSLRLSCAASGFTFSPSWMGWFRQAPGKEREFVATINEYGGRNYADSVKGRFTISADNSKNTAYLQMNSLKPEDTAVYYCARVDRDFDYWGQGTLVTVSSGGGGS[gap - human IgG1 Fc with C220S (EU numbers)]GGGSGGGGSASEVQLVESGGGLVQPGGSLRLSCAASGSTFSINAMGWFRQAPGKEREFVAGITSSGGYTNYADSVKGRFTISADNSKNTAYLQMNSLKPEDTAVYYCAADGVPEYSDYASGPVWGQGTLVTVSS
notes: also called Bi-Ab2; Bi-Ab2_ExpiCHO
With B1, the kon in experiment [1] turned out to be 174000 M⁻¹ s⁻¹; in experiment [2], 297000 M⁻¹ s⁻¹; in experiment [3] it was 328000 M⁻¹ s⁻¹; in experiment [4] it was 322000 M⁻¹ s⁻¹; in experiment [5] it was 266000 M⁻¹ s⁻¹. The figures for the equilibrium dissociation constant (Kd) in experiment [3] and in experiment [4] were 186 pM and 115 pM, respectively. Also, the figures for the off-rate constant (koff) in experiment [3] and in experiment [4] were 6.09e-05 s⁻¹ and 3.71e-05 s⁻¹, respectively.

B2: Bispecific Antibody 1 (bispecific antibody)
chain: EVQLVESGGGLVQPGGSLRLSCAASGSTFSINAMGWFRQAPGKEREFVAGITSSGGYTNYADSVKGRFTISADNSKNTAYLQMNSLKPEDTAVYYCAADGVPEYSDYASGPVWGQGTLVTVSSGGGGSGGGGSASEVQLVESGGGLVQPGGSLRLSCAASGFTFSPSWMGWFRQAPGKEREFVATINEYGGRNYADSVKGRFTISADNSKNTAYLQMNSLKPEDTAVYYCARVDRDFDYWGQGTLVTVSSGGGGS[gap - human IgG1 Fc with C220S (EU numbers)]
notes: also called Bi-Ab1; Bi-Ab1_ExpiCHO
B2: the kon in experiment [1] amounted to 145000 M⁻¹ s⁻¹; in experiment [2], 200000 M⁻¹ s⁻¹; in experiment [3] it was 239000 M⁻¹ s⁻¹; in experiment [4], 195000 M⁻¹ s⁻¹; in experiment [5], 165000 M⁻¹ s⁻¹.
